Reference: PubChem BioAssay AID2546 (National Center for Advancing Translational Sciences (NCATS), 2010)
Several values for one entry are separate records, joined by “and”; a condition that tells them apart may be missing. Identical values can stand only once. Screen size: about 310,000 compounds; about 11,000 (3.5%) were called active. Inconclusive means that the source gave no clear call. Such entries were picked first, then a sample of the others. Calls come from the whole dose curve; as a rule, active = well fitted inhibition curve with a large enough effect; inconclusive = small, poorly fitted or top-dose-only effect, or effect the other way; inactive = flat fitted curve, though single readings scatter. Potencies of inconclusive entries are doubtful fits and often do not repeat.

Assay: VP16 counterscreen qHTS for inhibitors of ROR gamma transcriptional activity;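 note: Gal4-VP16 expression switched on by copper sulfate through the metallothionein promoter; nearly all actives have a fitted effect of over 50% in size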
Settings: Drosophila S2 Gal4-VP16 UAS-luciferase, luminescence, 20 h; series mostly up to 53.6 µM
Potency is the fitted concentration of half-maximal effect; tags give direction and shape of the fitted curve.

| Compound | Potency |
| --- | --- |
| CCSC1(SCC)N=C(N)C2(C#N)C(c3ccc(OC)c(OC)c3OC)C12C#N (configuration not stated) | active: 2.51 µM |
| CCNC(=S)SCCOc1ccc(C)cc1 | inconclusive: 35.5 µM [inhibitor, single point] |
| CC(=O)C(C)Oc1ccc(Cc2ncc(C(F)(F)F)cc2Cl)cc1 (configuration not stated) | inconclusive: 2 µM [activator, full curve, poor fit] |
| Cc1cccc(NC(=O)c2nc[nH]c2C(=O)N[C@@H](Cc2ccccc2)C(=O)OC(C)(C)C)c1 | active: 7.08 µM |
| S=C(NCc1ccc(Cl)cc1)NC1CCCCC1 | active: 7.94 µM |
| COc1ccc(Oc2ncc3nc(CCc4ccccc4)c(=O)n(C[C@H]4CCCO4)c3n2)cc1 | inconclusive: 0.631 µM [activator, full curve] |
| CCCN(C(=O)c1ccco1)c1nnc(-c2ccccc2C)s1 | inactive |
| Cc1ccc(S(=O)(=O)Nc2ccccc2/C=N/c2nc3ccccc3n2C(C)C)cc1 | inconclusive: 20 µM [inhibitor, single point] |
| Cc1ccc(-c2c(C(=O)N/N=C/c3ccc(OC(C)C)cc3)nnn2-c2nonc2N)cc1 | inconclusive: 35.5 µM [inhibitor, single point] |
| COc1ccc(OC)c2c1C(=O)C(Cl)=C(Cl)C2=O | active: 5.01 µM |
| COc1cccc(C(=O)N/N=C/C(Br)=C/c2ccccc2)c1 | inconclusive: 35.5 µM [inhibitor, single point] |
| O=c1c(Cl)c(Cl)cnn1Cc1nnc(-c2ccc(Cl)cc2)o1 | inconclusive: 31.6 µM [inhibitor, single point] |
| CCOC(=O)CCCc1ccc(/C(C)=N/NC(N)=S)cc1 | inconclusive: 35.5 µM [inhibitor, single point] |
| CCn1cc(C2=NCC(C)O2)c2ccccc21 (configuration not stated) | inconclusive: 35.5 µM [inhibitor, single point] |
| COc1ccc(CCNc2ccncn2)cc1 | inconclusive: 25.1 µM [inhibitor, single point] |
| COC(=O)Cc1ccc(NC(=S)NCc2ccc(F)cc2)cc1 | inconclusive: 28.2 µM [inhibitor, single point] |
| Cc1ccc(S(=O)(=O)C/N=C(/NC(=S)N(c2ccccc2)c2ccccc2)c2ccccc2)cc1 | inconclusive: 35.5 µM [inhibitor, single point] |
| CC(=O)c1c(C)[nH]c(C(=O)Nc2ccccc2Cl)c1C | inconclusive: 31.6 µM [inhibitor, single point] |
| CC1CCCCC1NC(=O)CN1C(=O)CSc2cc(S(=O)(=O)N3CCCCCC3)ccc21 (configuration not stated) | inactive |
| CCOc1cc(/C=N/N=C(\N)c2nonc2N)cc(Br)c1OCc1cccc2ccccc12 | inconclusive: 35.5 µM [inhibitor, single point] |
| O=C(NCc1ccco1)C1CC(O)CN1C(=O)Nc1ccccc1 (configuration not stated) | inactive |
| Cc1ccccc1S(=O)(=O)Cc1ccc(C(=O)NCCCN2CCCC(C)C2)o1 (configuration not stated) | inconclusive: 0.501 µM [inhibitor, full curve, poor fit] |
| O=[N+]([O-])c1ccc(Cl)c(S(=O)(=O)/N=C(/c2ccccc2)N2CCOCC2)c1 | inactive |
| Cc1cc(C(=O)N/N=C/c2cc(Br)ccc2OC(=O)c2ccccc2Cl)n[nH]1 | inconclusive: 35.5 µM [inhibitor, single point] |

| Compound | Potency |
| --- | --- |
| CN(Cc1ccccc1)c1ccc(C(CC(N)=O)NC(=O)c2ccccc2)cc1[N+](=O)[O-] (configuration not stated) | inconclusive: 28.2 µM [inhibitor, single point] |
| COC(=O)c1sc2ccccc2c1N | inconclusive: 2 µM [inhibitor, partial curve] |
| COc1cccc(CNC(=O)N2CCN(c3ccccc3)CC2)c1 | inactive |
| COc1ccc(C(C)=O)cc1COC(=O)Cc1cc(OC)c(OC)c(OC)c1 | inactive |
| CN(C)c1ccc(N=Cc2nc(-c3ccccc3)oc2OC(=O)c2cccc(Cl)c2)cc1 | inconclusive: 11.2 µM [inhibitor, partial curve] |
| O=C(N/C(=C/c1cccc(Br)c1)c1nc(=S)[nH][nH]1)c1ccccc1 | inconclusive: 35.5 µM [inhibitor, single point] |
| O=C(CSc1nc2ccccc2c(=O)n1Cc1ccc(F)cc1)NCc1cccs1 | active: 5.01 µM |
| O=C(CCN1CCN(c2ccccc2F)CC1)c1ccc(Br)cc1 | inconclusive: 17.8 µM [inhibitor, single point] |
| Cc1ccc(C(C)NC(=O)Cn2nc(C)c([N+](=O)[O-])c2C)cc1 (configuration not stated) | inconclusive: 5.01 µM [activator, single point] |
| COc1cc(/C=C2/SC(=S)N(Cc3ccccc3)C2=O)ccc1OS(C)(=O)=O | inactive |
| Cc1ccc(NC(=O)CSc2n[nH]c(-c3ccccn3)n2)cc1 | active: 5.62 µM |
| CCc1ccc(C2=NN(C(=O)OC)C(O)(C(F)(F)F)C2)cc1 (configuration not stated) | inconclusive: 15.8 µM [inhibitor, single point] |
| CC(=O)Nc1sc(N/N=C/c2ccc(C)cc2)nc1-c1ccc(C)cc1 | inconclusive: 11.2 µM [inhibitor, single point] |
| C=CCNC(=S)NNC(=O)c1ccc(OCCCC)cc1 | inconclusive: 17.8 µM [inhibitor, partial curve, poor fit] |
| COCc1cc(C)nc(Sc2nc3c(c(=O)n(C)c(=O)n3C)n2C)c1C#N | inactive |
| CCN(CC)S(=O)(=O)c1cccc(NC(=O)COC(=O)C2CC3C=CC2C3)c1 (configuration not stated) | inconclusive: 25.1 µM [inhibitor, single point] |
| COc1ccc(CC(=O)N/N=C(\C)c2ccccn2)cc1 | inconclusive: 20 µM [inhibitor, single point] |
| O=C(/C=C/c1cccc([N+](=O)[O-])c1)OC1CCCCC1=O (configuration not stated) | inactive |
| O=[N+]([O-])c1cc(-c2ncccn2)c([N+](=O)[O-])s1 | active: 7.08 µM |
| NS(=O)(=O)c1cccc(NC(=O)CCSc2ccc(Cl)cc2)c1 | inactive |
| O=[N+]([O-])c1ccccc1NC1CCN(Cc2ccccc2)CC1 | inactive |
| CCc1ccc(NCc2nc3ccccc3c(=O)[nH]2)cc1 | inconclusive: 15.8 µM [inhibitor, single point] |
| CCOc1ccc(NC(=O)C(C)C(Cc2ccc(C)cc2)C(=O)O)cc1 (configuration not stated) | inactive |
| CN(C)C(CNC(=O)CNC(=O)Cc1cccc2ccccc12)c1ccccc1 (configuration not stated) | inactive |

| Compound | Potency |
| --- | --- |
| Clc1cccc(CSc2nnc(-c3cccnc3)n2Cc2ccco2)c1 | inconclusive: 35.5 µM [inhibitor, single point] |
| N#Cc1cccc2c1-c1ccccc1/C2=N/NC(N)=S | active: 5.01 µM |
| CCC1=NN(C(=O)C(=O)NCCc2ccccc2)C(O)(C(F)(F)F)C1 (configuration not stated) | active: 1.78 µM |
| O=C(CBr)Nc1c2c(nn1-c1ccccc1)CSC2 | inactive |
| Cc1cc(Cl)c2oc(C(=O)N3CCN(c4cccc(C)n4)CC3)c(C)c2c1 | inconclusive: 3.16 µM [activator, partial curve] |
| CC(C)=C1C2CCC1C1C(=O)N(c3nc(-c4ccc(C(C)C)cc4)c(C)s3)C(=O)C21 (configuration not stated) | inconclusive: 25.1 µM [inhibitor, single point] |
| Cc1cccc(CSc2nnc(CCCCCNC(=O)OC(C)(C)C)o2)c1 | inconclusive: 15.8 µM [inhibitor, single point] |
| CCC(C)(C)NC(=O)C(c1cccn1C)N(Cc1ccc(OC)cc1)C(=O)Cn1nnc2ccccc21 (configuration not stated) | inconclusive: 35.5 µM [inhibitor, single point] |
| COc1ccc(N2CCN(Cc3nc(Cc4cccc(F)c4)no3)C(C)C2)cc1 (configuration not stated) | inactive |
| Oc1ccc(Cl)cc1-c1cc(-c2ccco2)[nH]n1 | active: 12.6 µM |
| COc1cc(O)c(C(=O)c2ccccc2)cc1O | inconclusive: 15.8 µM [inhibitor, single point] |
| CCN1CCN(Cc2ccc(NC(=O)Nc3cccs3)cc2)CC1 | inconclusive: 20 µM [inhibitor, single point] |
| Cc1cc(C)c2ccc(NN)nc2c1O | active: 10 µM |
| CCCCC(C(=O)NC(C)c1ccccc1)C(=O)NC(C)c1ccccc1 (configuration not stated) | inactive |
| Nc1nc2n(n1)C(c1cccc(Br)c1)CC(c1ccc(F)cc1)N2 (configuration not stated) | inconclusive: 2.82 µM [inhibitor, single point] |
| O=C(NC1CC1)C1CCN(c2ccc(S(=O)(=O)N3CCOCC3)cc2)CC1 | inactive |
| O=C(NCCNc1ccc([N+](=O)[O-])cc1)c1ccc(Cl)cc1 | inconclusive: 22.4 µM [inhibitor, single point] |
| Nc1ccc2nc(-c3ccccc3)sc2c1 | inconclusive: 10 µM [inhibitor, partial curve, poor fit] |
| Cc1cc(CNC(=O)[C@H](C)[C@@H]2C[C@@]2(C)[C@@H](NC(=O)OCc2ccccc2)c2ccccc2)nn1C | inactive and inconclusive: 20 µM [inhibitor, single point] |
| Nc1c(C(=O)c2ccc(Cl)cc2)oc2ccccc12 | inconclusive: 25.1 µM [activator, single point] |
| CCOc1ccc(CCNC(=O)Cn2ncn3nc(-c4ccc(OC)cc4)cc3c2=O)cc1 | inconclusive: 35.5 µM [inhibitor, single point] |
| Cc1cccc(NC(=O)Cn2c(O)c(N=NC(=O)c3ccccc3O)c3ccccc32)c1 | inconclusive: 12.6 µM [inhibitor, single point] |
| Cc1c(C(=O)NCc2ccccn2)oc2ccccc12 | inconclusive: 7.08 µM [activator, full curve, poor fit] |
| Cc1sc(NC(=O)c2ccco2)c(CN2CCC(C)CC2)c1C | inactive |
